{"source": "PubChem BioAssay AID1347073", "about": "(National Center for Advancing Translational Sciences (NCATS), 2019)", "note": "Screen size: about 45,000 compounds; about 200 (0.44%) were called active. Roughly 7% stayed inconclusive and do not appear here. Calls come from the whole dose curve; as a rule, active = well fitted activation curve with a large enough effect; inconclusive = small, poorly fitted or top-dose-only effect; inactive = no such curve, though single readings can be large or run the other way. The list shows a part of the results.", "data": [{"experiment": "qHTS of TDP-43 Inhibitors: NCGC Sytravon Library Screen; note: 0% is about no effect; nearly all actives have a fitted effect of over 55% in size", "settings": "yeast TDP-43 toxicity rescue, BacTiter-Glo growth, 24 h; series mostly up to 46.1 µM; growth rescue (activation): at the top concentration", "how_it_was_run": "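TDP-43-expressing yeast, pregrown in raffinose, seeded at OD600 0.02 in galactose medium with compound for 24 hr at 30 deg C. Growth read by BacTiter-Glo luminescence, so rescue of toxicity appears as activation.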", "values": [{"smiles": "O=S(=O)(c1ccc(NC(=S)N/N=C/c2ccc(Oc3ccccc3)cc2)cc1)N1CCOCC1", "growth rescue (activation)": "inactive: 6.47%"}, {"smiles": "Nc1ncnc(Oc2ccccc2F)c1[N+](=O)[O-]", "growth rescue (activation)": "inactive: 33%"}, {"smiles": "O=C(O)c1ccc(NCCc2ccc(Cl)cc2)c([N+](=O)[O-])c1", "growth rescue (activation)": "inactive: 7.51%"}, {"smiles": "CCOC(=O)Nc1ccc2c(c1)N(C(=O)CN1CCN(CCO)CC1)c1ccccc1CC2", "growth rescue (activation)": "inactive: 3.49%"}, {"smiles": "CN1CCN(S(=O)(=O)c2cccc3nsnc23)CC1", "growth rescue (activation)": "inactive: 8.2%"}, {"smiles": "CCC1CCCCN1CCNC(=O)CNS(=O)(=O)c1ccc2nc(C)sc2c1", "note": "(stereo unspecified)", "growth rescue (activation)": "inactive: -24.9%"}, {"smiles": "COc1ccccc1NS(=O)(=O)c1ccc2[nH]c(=S)oc2c1", "growth rescue (activation)": "inactive: -14.3%"}, {"smiles": "O=C(N/N=C/c1c(O)ccc2ccccc12)c1cccnc1", "growth rescue (activation)": "inactive: -12.8%"}, {"smiles": "Cc1cccc(N(CC(=O)NCCc2ccccc2)C(=O)c2csnn2)c1", "growth rescue (activation)": "inactive: 2.28%"}, {"smiles": "COc1ccc(N2C(=O)C3C(c4ccc(OC)cc4O)NC(Cc4ccccc4)(C(=O)O)C3C2=O)cc1", "note": "(stereo unspecified)", "growth rescue (activation)": "inactive: 3.84%"}, {"smiles": "CC(=O)c1ccc(N2CCN(C(=O)c3ccc(S(=O)(=O)NCc4ccco4)cc3)CC2)cc1", "growth rescue (activation)": "inactive: -8.77%"}, {"smiles": "CC(C)COC(=O)N1CCCCC1c1cc(C(=O)NCc2ccc(F)cc2)no1", "note": "(stereo unspecified)", "growth rescue (activation)": "inactive: 20.3%"}, {"smiles": "O=S(=O)(Nc1ccc(Cl)cn1)c1ccc(F)cc1", "growth rescue (activation)": "inactive: 29.3%"}, {"smiles": "COc1cccc(OCC(O)CN2CCC(CN3C(=O)c4cccc5cccc(c45)C3=O)CC2)c1", "note": "(stereo unspecified)", "growth rescue (activation)": "inactive: -26.7%"}, {"smiles": "CCCCc1nc(NCc2ccccc2)c(C#N)c2c1CCCC2", "growth rescue (activation)": "inactive: 8.78%"}, {"smiles": "O=C(Nc1c(F)cccc1F)C1CCN(C(=O)c2cccs2)CC1", "growth rescue (activation)": "inactive: -9.13%"}, {"smiles": "COc1cc(C(C(=O)NCC2CCCO2)N(C(=O)Cn2nnc3ccccc32)c2ccc(C(C)=O)cc2)ccc1O", "note": "(stereo unspecified)", "growth rescue (activation)": "inactive: 4.35%"}, {"smiles": "O=[N+]([O-])c1ccc(OCc2cccc(COc3ccc([N+](=O)[O-])cc3)n2)cc1", "growth rescue (activation)": "inactive: 9.63%"}, {"smiles": "CCCc1nnc2c(N(C)S(=O)(=O)c3ccccc3)nc3ccccc3n12", "growth rescue (activation)": "inactive: -1.04%"}, {"smiles": "O=c1nc(N/N=C/C=C/c2ccccc2)cn[nH]1", "growth rescue (activation)": "inactive: 24.6%"}, {"smiles": "CCc1ccccc1NC(=O)c1cc(-c2ccco2)on1", "growth rescue (activation)": "inactive: 33.5%"}, {"smiles": "O=C(COC(=O)[C@H](Cc1ccccc1)NC(=O)c1cccs1)Nc1c(Cl)cccc1Cl", "growth rescue (activation)": "inactive: -0.356%"}, {"smiles": "O=C(c1ccc2c(c1)N(Cc1ccccc1)C(=O)c1ccccc1S2(=O)=O)N1CCCCCC1", "growth rescue (activation)": "inactive: 24.7%"}, {"smiles": "Cc1ccc2cc(CN(c3ccccc3)S(=O)(=O)c3ccccc3)c(=O)[nH]c2c1", "growth rescue (activation)": "inactive: 20.5%"}, {"smiles": "CC(CNC(=O)CCc1nnc(CCC2CCCCC2)o1)c1ccccc1", "note": "(stereo unspecified)", "growth rescue (activation)": "inactive: 11.8%"}, {"smiles": "COc1ccc(S(=O)(=O)N2CCOCC2)cc1NC(=O)CSc1ncccn1", "growth rescue (activation)": "inactive: 14.5%"}, {"smiles": "CCN(CC)c1ccc(/C=N/NC(=O)c2ccco2)cc1", "growth rescue (activation)": "inactive: -4.77%"}, {"smiles": "NC(=O)C1CCN(C(=O)CCc2ccsc2)CC1", "growth rescue (activation)": "inactive: -13%"}, {"smiles": "CCOC(=O)Cc1csc(NC(=O)COc2cccc(C)c2)n1", "growth rescue (activation)": "inactive: 25.7%"}, {"smiles": "Cc1nn(C)cc1C(C(=O)NC1CCCCC1)N(C(=O)Cc1cccs1)c1ccc(F)cc1", "note": "(stereo unspecified)", "growth rescue (activation)": "inactive: 15.4%"}, {"smiles": "COc1ccc(OC)c(NC(=O)Nc2nc(CN)cs2)c1", "growth rescue (activation)": "inactive: 2.57%"}, {"smiles": "Cc1ccc(N2C(=O)C3C(C2=O)N2C(c4cccs4)C4C(=O)N(c5ccc(C)cc5)C(=O)C4N2C3c2cccs2)cc1", "note": "(stereo unspecified)", "growth rescue (activation)": "inactive: -14.2%"}, {"smiles": "c1ccc(C2C/C(=N\\N3CCOCC3)c3ccccc3O2)cc1", "note": "(stereo unspecified)", "growth rescue (activation)": "inactive: 16.8%"}, {"smiles": "CC(=O)Nc1ccccc1-c1nc2ccccc2n(Cc2cccc(Br)c2)c1=O", "growth rescue (activation)": "inactive: 16.7%"}, {"smiles": "CCCC(=O)Nc1ccc2c(c1)nc(CCN1CCCCC1)n2C", "growth rescue (activation)": "inactive: 11.9%"}, {"smiles": "O=C(Nc1ccc(S(=O)(=O)N2CCCCC2)cc1)C1CC1", "growth rescue (activation)": "inactive: -1.5%"}, {"smiles": "C=C(C)Cn1c(SCC(=O)O)nnc1-c1ccc(C(C)(C)C)cc1", "growth rescue (activation)": "inactive: 5.93%"}, {"smiles": "COc1ccc(S(=O)(=O)N2CCc3ccccc3C2)cc1C(=O)O", "growth rescue (activation)": "inactive: -24%"}, {"smiles": "CCC(=O)N(Cc1cc(=O)[nH]c2ccccc12)c1ccc(OC)cc1", "growth rescue (activation)": "inactive: 2.46%"}, {"smiles": "NC(CCc1ccccc1)c1csc(Nc2cnccn2)n1", "note": "(stereo unspecified)", "growth rescue (activation)": "inactive: 7.79%"}, {"smiles": "Cc1ccc2c(c1)C1CN(C)CCC1N2C(=O)c1ccccc1NS(=O)(=O)c1cccc(C(F)(F)F)c1", "note": "(stereo unspecified)", "growth rescue (activation)": "inactive: -21.2%"}, {"smiles": "CCc1ccccc1NC(=S)N(Cc1ccc(OC)cc1)CC1CCC(C(=O)O)CC1", "note": "(stereo unspecified)", "growth rescue (activation)": "inactive: -4.22%"}, {"smiles": "COc1cc(OC)cc(C(=O)NCC(=O)OCC(=O)N2CCc3ccccc32)c1", "growth rescue (activation)": "inactive: -0.0791%"}, {"smiles": "COc1ccccc1N1CCN(C(=O)CN2C(=O)C3CCCCC3C2=O)CC1", "note": "(stereo unspecified)", "growth rescue (activation)": "inactive: -7.15%"}, {"smiles": "CNC(=O)c1cc(C(=O)c2ccccc2C(F)(F)F)c[nH]1", "growth rescue (activation)": "inactive: 12.3%"}, {"smiles": "Cc1nccc(-c2ccc(-n3c(C)ccc3C)cc2)n1", "growth rescue (activation)": "inactive: 23.4%"}, {"smiles": "CCOC(=O)N1CCN(S(=O)(=O)N2CCCC(C(=O)NCc3ccc(OC)cc3)C2)CC1", "note": "(stereo unspecified)", "growth rescue (activation)": "inactive: 6.8%"}, {"smiles": "O=C(Nc1cccc(F)c1)C1CCCN(S(=O)(=O)c2ccc(-n3cnnn3)cc2)C1", "note": "(stereo unspecified)", "growth rescue (activation)": "inactive: 5%"}, {"smiles": "COc1ccccc1NC(=O)CSC1=NC(=O)C(Cc2ccccc2)C(=O)N1", "note": "(stereo unspecified)", "growth rescue (activation)": "inactive: 3.86%"}, {"smiles": "Cc1ccc(/C=C/C(=O)OC(C)C(=O)Nc2ncc(Cl)cc2Cl)o1", "note": "(stereo unspecified)", "growth rescue (activation)": "inactive: -3.97%"}, {"smiles": "COc1ccc2c(c1)c(CC(=O)Nc1cc(C)ccc1C)c(C)n2C(=O)c1ccc(Cl)cc1", "growth rescue (activation)": "inactive: 5.42%"}, {"smiles": "Cc1cccc(OCC(=O)NN2C(=O)C3C4C=CC(O4)C3C2=O)c1", "note": "(stereo unspecified)", "growth rescue (activation)": "inactive: 10.9%"}, {"smiles": "C/C(=N\\NC(=S)NC1CCCCC1)c1cccc(Br)c1", "growth rescue (activation)": "inactive: -6.1%"}, {"smiles": "Cc1onc(-c2c(F)cccc2Cl)c1C(=O)Nc1cccc(S(=O)(=O)N2CCOCC2)c1", "growth rescue (activation)": "inactive: 2.7%"}, {"smiles": "NC(=O)c1c(NC(=O)C2CCCO2)sc2c1CCCCC2", "note": "(stereo unspecified)", "growth rescue (activation)": "inactive: 14.1%"}, {"smiles": "C=CCn1c(SCC(=O)Nc2ccc(F)cc2)nc2cc(C(=O)O)ccc2c1=O", "growth rescue (activation)": "inactive: 3.92%"}, {"smiles": "CC(C)c1ccc(NC(=O)N2CCN(c3ccc(Cl)c(Cl)c3)CC2)cc1", "growth rescue (activation)": "inactive: 13.7%"}, {"smiles": "O=C(C1=C(O)C(=O)N(CC2CCCO2)C1c1ccccc1[N+](=O)[O-])c1ccco1", "note": "(stereo unspecified)", "growth rescue (activation)": "inactive: -1.31%"}, {"smiles": "COc1ccc(S(=O)(=O)c2ccc(OCC3CO3)cc2)cc1", "note": "(stereo unspecified)", "growth rescue (activation)": "inactive: 16.4%"}, {"smiles": "CCC(COC(=O)Nc1ccccc1)NC(=O)OC(C)C", "note": "(stereo unspecified)", "growth rescue (activation)": "inactive: -14%"}, {"smiles": "Cc1c(NS(=O)(=O)c2cccc(C(=O)N3CCC(C(N)=O)CC3)c2)c(=O)n(-c2ccccc2)n1C", "growth rescue (activation)": "inactive: -7.08%"}, {"smiles": "CCOC(=O)N=Nc1c(O)n(CC)c2ccccc12", "growth rescue (activation)": "inactive: 19.6%"}, {"smiles": "Cc1ccc(CN2CCN(Cc3cn[nH]c3-c3ccccc3)CC2CCO)o1", "note": "(stereo unspecified)", "growth rescue (activation)": "inactive: -0.374%"}, {"smiles": "CCOC(=O)c1c(C)[nH]c(C(=O)COC(=O)/C=C/c2ccc(O)c(OC)c2)c1C", "growth rescue (activation)": "inactive: 6.37%"}, {"smiles": "Nc1nnc(SCC(=O)NNC(=O)c2ccccc2F)s1", "growth rescue (activation)": "inactive: -5.76%"}, {"smiles": "Cn1c(C(=O)O)c(CC(=O)Nc2ccccc2F)c2ccccc21", "growth rescue (activation)": "inactive: 7.39%"}]}]}
